# This is one part of the list.
# B1: NESD (Drosophila melanogaster), NP_610025.1 (protein)
# chain: MGHHHHHHSSGVDLGTENLYFQSMMEVFTFEKSYLERLKEAEAVLSWEGAVMPASQVRSEWKSYVELKIEPAGWQAIWKIPRVICEDLKLRYPTIVYGYVEQVIFDELKAVFVVTAVQDSDVHLPESNEVSLVELWPTVQQENAALNVDTTAECIDRLRFFYTHVWMPWDKDYDDDRDWVQQHLQARIQLVCDLSKNRLPRPLALHMRTLLAEAKYIQQRLDYLELDLSDAESDDEAVELNDSVAEPARKQSKAGSANGCLNVSSLPVTDLMCLHLRMAIIRSEFEILENPEMRRAYSELQSNSLKRLRCSSGRTRQSEDLLVERNSISHVVTLPGKLQQQLELLKLAQTLVKPESKVQLSNTLQDVLSICQSNDDILLSPGEHTIKFLEHLNDNGSLRGLTQPEAILSPAADLSLLPVVCSSDEDSTLLVIDGDYTLSELVLDCRHVRRGILLRNGTLTMRGCRLLGDGSSSTQEGIVCMPGASVELKSCLIENFAVGVSMRPKSSAELGSVQFKTCKTGLELLEKSASVNLQGSKCSFENCALGILADGFVLGEQRTEKVLVLNKFSELQRYNEDNLLGNCSFYNCKKNVRVFNESGQLLAQRSHQQLLEDELGGENKENIQLV
# Key:
# Experiment in all cases: glycan array binding signal (z-score within array); higher = stronger binding
# Conditions in all cases: glycan notation: IUPAC condensed, linker removed
# GlcNAc(b1-6)GalNAc = target: GlcNAc(b1-6)GalNAc
# Method in brief: (§1)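 Negative Z-scores can be read as non-binding. The Z-score is calculated within each array and then averaged across arrays of one protein sequence at different concentrations or buffers and across linkers. Arrays, 3228 in all, were curated from the Consortium for Functional Glycomics database and kept only where the protein sequence was available.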
# GlcNAc3Prop(b1-4)GlcNAc = target: GlcNAc3Prop(b1-4)GlcNAc
# Method in brief: as §1
# Kdn(a2-3)Gal(b1-3)GlcNAc = target: Kdn(a2-3)Gal(b1-3)GlcNAc
# Method in brief: as §1
# Kdn(a2-3)Gal(b1-4)GlcNAc = target: Kdn(a2-3)Gal(b1-4)GlcNAc
# Method in brief: as §1
# [1] = target: Man(a1-2)Man(a1-2)Man(a1-3)Man
# Method in brief: as §1
# [2] = target: Man(a1-2)Man(a1-2)Man(a1-6)[Man(a1-3)]Man
# Method in brief: as §1
# Man(a1-2)Man(a1-3)Man = target: Man(a1-2)Man(a1-3)Man
# Method in brief: as §1
# [3] = target: Man(a1-2)Man(a1-3)[Man(a1-2)Man(a1-6)]Man
# Method in brief: as §1
# [4] = target: Man(a1-2)Man(a1-3)[Man(a1-2)Man(a1-6)]Man(a1-6)[Man(a1-2)Man(a1-2)Man(a1-3)]Man
# Method in brief: as §1
# [5] = target: Man(a1-2)Man(a1-3)[Man(a1-2)Man(a1-6)]Man(a1-6)[Man(a1-2)Man(a1-2)Man(a1-3)]Man(b1-4)GlcNAc(b1-4)GlcNAc
# Method in brief: as §1
# [6] = target: Man(a1-2)Man(a1-3)[Man(a1-6)]Man(a1-6)[Man(a1-2)Man(a1-3)]Man(b1-4)GlcNAc(b1-4)GlcNAc
# Method in brief: as §1
# [7] = target: Man(a1-2)Man(a1-6)[Man(a1-3)]Man(a1-6)[Man(a1-2)Man(a1-2)Man(a1-3)]Man
# Method in brief: as §1
# [8] = target: Man(a1-2)Man(a1-6)[Man(a1-3)]Man(a1-6)[Man(a1-2)Man(a1-2)Man(a1-3)]Man(b1-4)GlcNAc(b1-4)GlcNAc
# Method in brief: as §1
# Man(a1-3)[Man(a1-6)]Man = target: Man(a1-3)[Man(a1-6)]Man
# Method in brief: as §1
# [9] = target: Man(a1-3)[Man(a1-6)]Man(a1-6)[Man(a1-2)Man(a1-3)]Man(b1-4)GlcNAc(b1-4)GlcNAc
# Method in brief: as §1
# [10] = target: Man(a1-3)[Man(a1-6)]Man(a1-6)[Man(a1-3)]Man
# Method in brief: as §1
# [11] = target: Man(a1-3)[Man(a1-6)]Man(a1-6)[Man(a1-3)]Man(b1-4)GlcNAc(b1-4)GlcNAc
# Method in brief: as §1
# [12] = target: Man(a1-3)[Man(a1-6)]Man(b1-4)GlcNAc(b1-4)GlcNAc
# Method in brief: as §1
# Man(a1-6)Man = target: Man(a1-6)Man
# Method in brief: as §1
# Man(b1-4)GlcNAc = target: Man(b1-4)GlcNAc
# Method in brief: as §1
# Neu5Ac(a2-3)Gal = target: Neu5Ac(a2-3)Gal
# Method in brief: as §1
# [13] = target: Neu5Ac(a2-3)Gal(b1-3)GalNAc
# Method in brief: as §1
# [14] = target: Neu5Ac(a2-3)Gal(b1-3)GalNAc(b1-3)Gal(a1-4)Gal(b1-4)Glc
# Method in brief: as §1
# [15] = target: Neu5Ac(a2-3)Gal(b1-3)GalNAc(b1-3)Gal(b1-4)GlcNAc
# Method in brief: as §1
# [16] = target: Neu5Ac(a2-3)Gal(b1-3)GalNAc(b1-4)[Neu5Ac(a2-3)]Gal(b1-4)Glc
# Method in brief: as §1
# [17] = target: Neu5Ac(a2-3)Gal(b1-3)GalNAc6S
# Method in brief: as §1
# [18] = target: Neu5Ac(a2-3)Gal(b1-3)GlcNAc
# Method in brief: as §1
# [19] = target: Neu5Ac(a2-3)Gal(b1-3)GlcNAc(b1-3)Gal(b1-3)GlcNAc
# Method in brief: as §1
# [20] = target: Neu5Ac(a2-3)Gal(b1-3)GlcNAc6S
# Method in brief: as §1
# [21] = target: Neu5Ac(a2-3)Gal(b1-3)[Fuc(a1-4)]GlcNAc
# Method in brief: as §1
# [22] = target: Neu5Ac(a2-3)Gal(b1-3)[Fuc(a1-4)]GlcNAc(b1-3)Gal(b1-4)[Fuc(a1-3)]GlcNAc
# Method in brief: as §1
# [23] = target: Neu5Ac(a2-3)Gal(b1-3)[Neu5Ac(a2-3)Gal(b1-4)]GlcNAc
# Method in brief: as §1
# [24] = target: Neu5Ac(a2-3)Gal(b1-3)[Neu5Ac(a2-6)]GalNAc
# Method in brief: as §1
# Neu5Ac(a2-3)Gal(b1-4)Glc = target: Neu5Ac(a2-3)Gal(b1-4)Glc
# Method in brief: as §1
# [25] = target: Neu5Ac(a2-3)Gal(b1-4)GlcNAc
# Method in brief: as §1
# [26] = target: Neu5Ac(a2-3)Gal(b1-4)GlcNAc(b1-2)Man(a1-3)[GlcNAc(b1-2)Man(b1-4)GlcNAc(b1-2)Man(a1-6)]Man(b1-4)GlcNAc(b1-4)GlcNAc
# Method in brief: as §1
# [27] = target: Neu5Ac(a2-3)Gal(b1-4)GlcNAc(b1-2)Man(a1-3)[Neu5Ac(a2-6)Gal(b1-4)GlcNAc(b1-2)Man(a1-6)]Man(b1-4)GlcNAc(b1-4)GlcNAc
# Method in brief: as §1
# [28] = target: Neu5Ac(a2-3)Gal(b1-4)GlcNAc(b1-3)Gal(b1-3)GlcNAc
# Method in brief: as §1
# [29] = target: Neu5Ac(a2-3)Gal(b1-4)GlcNAc(b1-3)Gal(b1-4)GlcNAc
# Method in brief: as §1
# [30] = target: Neu5Ac(a2-3)Gal(b1-4)GlcNAc(b1-3)Gal(b1-4)GlcNAc(b1-3)Gal(b1-4)GlcNAc
# Method in brief: as §1
# [31] = target: Neu5Ac(a2-3)Gal(b1-4)GlcNAc(b1-3)Gal(b1-4)[Fuc(a1-3)]GlcNAc
# Method in brief: as §1
# [32] = target: Neu5Ac(a2-3)Gal(b1-4)GlcNAc(b1-6)[Gal(b1-3)]GalNAc
# Method in brief: as §1
# [33] = target: Neu5Ac(a2-3)Gal(b1-4)GlcNAc(b1-6)[Neu5Ac(a2-3)Gal(b1-3)]GalNAc
# Method in brief: as §1
# [34] = target: Neu5Ac(a2-3)Gal(b1-4)GlcNAc6S
# Method in brief: as §1
# [35] = target: Neu5Ac(a2-3)Gal(b1-4)[Fuc(a1-3)]GlcNAc
# Method in brief: as §1
# [36] = target: Neu5Ac(a2-3)Gal(b1-4)[Fuc(a1-3)]GlcNAc(b1-3)Gal
# Method in brief: as §1
# [37] = target: Neu5Ac(a2-3)Gal(b1-4)[Fuc(a1-3)]GlcNAc(b1-3)Gal(b1-4)GlcNAc
# Method in brief: as §1
# [38] = target: Neu5Ac(a2-3)Gal(b1-4)[Fuc(a1-3)]GlcNAc(b1-3)Gal(b1-4)[Fuc(a1-3)]GlcNAc(b1-3)Gal(b1-4)[Fuc(a1-3)]GlcNAc
# Method in brief: as §1
# [39] = target: Neu5Ac(a2-3)Gal(b1-4)[Fuc(a1-3)]GlcNAc(b1-6)[Gal(b1-3)]GalNAc
# Method in brief: as §1
# [40] = target: Neu5Ac(a2-3)Gal(b1-4)[Fuc(a1-3)]GlcNAc6S
# Method in brief: as §1
# [41] = target: Neu5Ac(a2-3)Gal6S(b1-4)GlcNAc
# Method in brief: as §1
# [42] = target: Neu5Ac(a2-3)Gal6S(b1-4)[Fuc(a1-3)]GlcNAc
# Method in brief: as §1
# Neu5Ac(a2-3)GalNAc = target: Neu5Ac(a2-3)GalNAc
# Method in brief: as §1
# [43] = target: Neu5Ac(a2-3)GalNAc(b1-4)GlcNAc
# Method in brief: as §1
# [44] = target: Neu5Ac(a2-3)[GalNAc(b1-4)]Gal(b1-4)Glc
# Method in brief: as §1
# [45] = target: Neu5Ac(a2-3)[GalNAc(b1-4)]Gal(b1-4)GlcNAc
# Method in brief: as §1
# [46] = target: Neu5Ac(a2-3)[Neu5Ac(a2-6)]GalNAc
# Method in brief: as §1
# Neu5Ac(a2-6)Gal = target: Neu5Ac(a2-6)Gal
# Method in brief: as §1
# Neu5Ac(a2-6)Gal(b1-4)Glc = target: Neu5Ac(a2-6)Gal(b1-4)Glc
# Method in brief: as §1
# [47] = target: Neu5Ac(a2-6)Gal(b1-4)GlcNAc
# Method in brief: as §1
binder,measurement,setting,value
B1,glycan array binding signal (z-score),GlcNAc(b1-6)GalNAc,0.156
same,glycan array binding signal (z-score),GlcNAc3Prop(b1-4)GlcNAc,-0.17
same,glycan array binding signal (z-score),Kdn(a2-3)Gal(b1-3)GlcNAc,-0.174
same,glycan array binding signal (z-score),Kdn(a2-3)Gal(b1-4)GlcNAc,-0.131
same,glycan array binding signal (z-score),[1],-0.315
same,glycan array binding signal (z-score),[2],-0.364
same,glycan array binding signal (z-score),Man(a1-2)Man(a1-3)Man,-0.316
same,glycan array binding signal (z-score),[3],-0.222
same,glycan array binding signal (z-score),[4],-0.314
same,glycan array binding signal (z-score),[5],0.313
same,glycan array binding signal (z-score),[6],-0.638
same,glycan array binding signal (z-score),[7],-0.442
same,glycan array binding signal (z-score),[8],-0.191
same,glycan array binding signal (z-score),Man(a1-3)[Man(a1-6)]Man,-0.458
same,glycan array binding signal (z-score),[9],0.103
same,glycan array binding signal (z-score),[10],-0.415
same,glycan array binding signal (z-score),[11],0.69
same,glycan array binding signal (z-score),[12],-0.345
same,glycan array binding signal (z-score),Man(a1-6)Man,-0.182
same,glycan array binding signal (z-score),Man(b1-4)GlcNAc,-0.027
same,glycan array binding signal (z-score),Neu5Ac(a2-3)Gal,0.178
same,glycan array binding signal (z-score),[13],-0.147
same,glycan array binding signal (z-score),[14],-0.413
same,glycan array binding signal (z-score),[15],0.016
same,glycan array binding signal (z-score),[16],-0.127
same,glycan array binding signal (z-score),[17],0.627
same,glycan array binding signal (z-score),[18],-0.205
same,glycan array binding signal (z-score),[19],-0.223
same,glycan array binding signal (z-score),[20],0.17
same,glycan array binding signal (z-score),[21],-0.357
same,glycan array binding signal (z-score),[22],-0.114
same,glycan array binding signal (z-score),[23],-0.231
same,glycan array binding signal (z-score),[24],-0.152
same,glycan array binding signal (z-score),Neu5Ac(a2-3)Gal(b1-4)Glc,-0.277
same,glycan array binding signal (z-score),[25],0.042
same,glycan array binding signal (z-score),[26],-0.593
same,glycan array binding signal (z-score),[27],-0.237
same,glycan array binding signal (z-score),[28],0.025
same,glycan array binding signal (z-score),[29],-0.571
same,glycan array binding signal (z-score),[30],0.395
same,glycan array binding signal (z-score),[31],-0.129
same,glycan array binding signal (z-score),[32],-0.088
same,glycan array binding signal (z-score),[33],-0.732
same,glycan array binding signal (z-score),[34],-0.023
same,glycan array binding signal (z-score),[35],-0.028
same,glycan array binding signal (z-score),[36],-0.136
same,glycan array binding signal (z-score),[37],0.005
same,glycan array binding signal (z-score),[38],-0.689
same,glycan array binding signal (z-score),[39],0.059
same,glycan array binding signal (z-score),[40],0.068
same,glycan array binding signal (z-score),[41],0.267
same,glycan array binding signal (z-score),[42],0.691
same,glycan array binding signal (z-score),Neu5Ac(a2-3)GalNAc,-0.159
same,glycan array binding signal (z-score),[43],-0.017
same,glycan array binding signal (z-score),[44],-0.137
same,glycan array binding signal (z-score),[45],-0.191
same,glycan array binding signal (z-score),[46],-0.323
same,glycan array binding signal (z-score),Neu5Ac(a2-6)Gal,-0.359
same,glycan array binding signal (z-score),Neu5Ac(a2-6)Gal(b1-4)Glc,-0.248
same,glycan array binding signal (z-score),[47],-0.221

# — the supplement of paper PMC8728848
